Results as given in patent US20100075953A1, “SUBSTITUTED PIPERAZINES, (1,4) DIAZEPINES, AND 2,5-DIAZABICYCLO (2.2.1) HEPTANES AS HISTAMINE H1 AND/OR H3 ANTAGONISTS OR HISTAMINE H3 REVERSE ANTAGONISTS” (Glaxo Group Limited, priority 2002, published 2010).
Some entries share one result that the patent states for a list of compounds.

Biological target: histamine H3 receptor (Homo sapiens, UniProt Q9Y5N1)
Experiment: Histamine H3 functional antagonist assay
Conditions: membranes of CHO K1 cells expressing human H3, [35S]GTPgammaS SPA, histamine 0.3 μM

histamine H3 receptor, sequence (Q9Y5N1 whole entry): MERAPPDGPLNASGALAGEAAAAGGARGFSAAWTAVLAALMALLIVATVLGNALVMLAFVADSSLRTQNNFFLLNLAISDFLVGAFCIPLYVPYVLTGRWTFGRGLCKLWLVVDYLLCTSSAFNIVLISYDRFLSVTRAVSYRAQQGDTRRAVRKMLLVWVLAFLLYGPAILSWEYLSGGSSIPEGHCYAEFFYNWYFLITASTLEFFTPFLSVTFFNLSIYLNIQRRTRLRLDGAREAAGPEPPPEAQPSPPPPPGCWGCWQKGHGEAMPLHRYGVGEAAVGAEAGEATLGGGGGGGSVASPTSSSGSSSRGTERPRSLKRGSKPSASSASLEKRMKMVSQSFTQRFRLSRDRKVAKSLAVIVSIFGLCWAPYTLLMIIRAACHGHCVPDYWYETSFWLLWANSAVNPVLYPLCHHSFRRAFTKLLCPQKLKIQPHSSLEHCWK

SMILES | antagonism in the histamine H3 functional antagonist assay (pKb) | other results
O=C(c1ccc(-n2cnnn2)cc1)N1CCN(c2ccc(OCCCN3CCCCC3)cc2)CC1 [Example E402, 1-(4-{[3-(1-Piperidinyl)propyl]oxy}phenyl)-4-{[4-(1H-tetrazol-1-yl)phenyl]carbonyl}piperazine] | > 6.5 pKb | 
O=C(c1ccccc1)N1CCN(c2ccc(OCCCN3CCCCC3)c(F)c2)CC1 [Example E446, 1-(3-Fluoro-4-{[3-(1-piperidinyl)propyl]oxy}phenyl)-4-(phenylcarbonyl)piperazine] | > 6.5 pKb | 
O=C(c1ccc(Cl)c(F)c1)N1CCN(c2ccc(OCCCN3CCCCC3)cc2)CC1 [Example E359, 1-[(4-Chloro-3-fluorophenyl)carbonyl]-4-(4-{[3-(1-piperidinyl)propyl]oxy}phenyl)piperazine] | > 6.5 pKb | 
O=C(N1CCNCC1)N1CCN(c2ccc(OCCCN3CCCCC3)cc2)CC1 [Example E284, 1-(1-piperazinylcarbonyl)-4-(4-{[3-(1-piperidinyl)propyl]oxy}phenyl)piperazine] | > 8.4 pKb | antagonism in the histamine H3 functional antagonist assay (pKb) (listed as Example 284): > 6.5 pKb
O=C(c1ccc2ccccc2c1)N1CCN(c2ccc(OCCCN3CCCCC3)cc2)CC1 [Example E341, 1-(2-Naphthalenylcarbonyl)-4-(4-{[3-(1-piperidinyl)propyl]oxy}phenyl)piperazine] | > 6.5 pKb | 
Clc1ccc(N2CCN(c3cccc(OCCCN4CCCCC4)c3)CC2)cc1Cl [Example E52, 1-(3,4-Dichloro-phenyl)-4-[3-(3-Piperidin-1-yl-propoxy)-phenyl]piperazine] | > 6.5 pKb | 
O=C(N1CCOCC1)N1CCN(c2ccc(OCCCN3CCCCC3)cc2)CC1 [Example E269, 4-{[4-(4-{[3-(1-Piperidinyl)propyl]oxy}phenyl)-1-piperazinyl]carbonyl}morpholine] | > 6.5 pKb | 
O=C(c1ccc2ccccc2n1)N1CCN(c2ccc(OCCCN3CCCCC3)cc2)CC1 [Example E349, 2-{[4-(4-{[3-(1-Piperidinyl)propyl]oxy}phenyl)-1-piperazinyl]carbonyl}quinoline] | > 6.5 pKb | 
O=C(N1CCN(c2ccc(OCCCN3CCCCC3)cc2)CC1)N1CCCC1c1ccccc1 (centres unmarked) [Example E279, 1-[(2-Phenyl-1-pyrrolidinyl)carbonyl]-4-(4-{[3-(1-piperidinyl)propyl]oxy}phenyl)piperazine] | > 8.4 pKb | antagonism in the histamine H3 functional antagonist assay (pKb) (listed as Example 279): > 6.5 pKb
O=C(N1CCCCC1)N1CCN(c2ccc(OCCCN3CCCCC3)cc2)CC1 [Example E271, 1-(1-Piperidinylcarbonyl)-4-(4-{[3-(1-piperidinyl)propyl]oxy}phenyl)piperazine] | > 6.5 pKb | 
O=C(Nc1ccccc1)N1CCN(c2cccc(OCCCN3CCCCC3)c2)CC1 [Example E49, 4-[3-(3-Piperidin-1-yl-propoxy)-phenyl] piperazine-1-carboxylic acid phenylamide] | > 6.5 pKb | 
CCN(CC)C(=O)c1ccc(C(=O)N2CCN(c3ccc(OCCCN4CCCCC4)cc3)CC2)cc1 [Example E439, N,N-Diethyl-4-{[4-(4-{[3-(1-piperidinyl)propyl]oxy}phenyl)-1-piperazinyl]carbonyl}benzamide] | > 8.4 pKb | antagonism in the histamine H3 functional antagonist assay (pKb) (listed as Example 439): > 6.5 pKb
O=C(c1cncs1)N1CCN(c2ccc(OCCCN3CCCCC3)cc2)CC1 [Example E388, 1-(4-{[3-(1-Piperidinyl)propyl]oxy}phenyl)-4-(1,3-thiazol-5-ylcarbonyl)piperazine] | > 6.5 pKb | 
O=C(Nc1ccc(Cl)c(Cl)c1)N1CCN(c2cccc(OCCCN3CCCCC3)c2)CC1 [Example E50, 4-[3-(3-Piperidin-1-yl-propoxy)-phenyl] piperazine-1-carboxylic acid (3,4-dichloro-phenyl)-amide] | > 6.5 pKb | 
C[C@@H]1CN(C(=O)c2ccncc2)CCN1c1ccc(OCCCN2CCCCC2)cc1 [Example E327, (2R)-2-Methyl-1-(4-{[3-(1-piperidinyl)propyl]oxy}phenyl)-4-(4-pyridinylcarbonyl)piperazine] | > 8.4 pKb | antagonism in the histamine H3 functional antagonist assay (pKb) (listed as Example 327): > 6.5 pKb
CS(=O)(=O)N1CCN(c2ccc(OCCCN3CCCCC3)cc2)CC1 [Example E40, 1-Methanesulphonyl-4-[4-(3-piperidin-1-yl-propoxy)-phenyl]-piperazine] | > 8.4 pKb | antagonism in the histamine H3 functional antagonist assay (pKb) (listed as Example E40): > 6.5 pKb
O=C(c1ccccc1)N1CCN(c2ccc(OCCCN3CCC(F)(F)CC3)cc2)CC1 [Example E464, 1-(4-{4-[3-(4,4-Difluoro-piperidin-1-yl)-propoxy]-phenyl}-piperazin-1-yl)-1-phenyl-methanone] | > 6.5 pKb | 
O=C(c1ccc(C(=O)N2CC[C@@H](O)C2)cc1)N1CCN(c2ccc(OCCCN3CCCCC3)cc2)CC1 [Example E445, (3R)-1-[(4-{[4-(4-{[3-(1-Piperidinyl)propyl]oxy}phenyl)-1-piperazinyl]carbonyl}phenyl)carbonyl]-3-pyrrolidinol] | > 8.4 pKb | antagonism in the histamine H3 functional antagonist assay (pKb) (listed as Example 445): > 6.5 pKb
Clc1ccc(N2CCN(c3ccc(OCCCN4CCCCC4)cc3)CC2)cc1Cl [Example E51, 1-(3,4-Dichloro-phenyl)-4-[4-(3-Piperidin-1-yl-propoxy)-phenyl]piperazine] | > 8.4 pKb | antagonism in the histamine H3 functional antagonist assay (pKb) (listed as Example E51): > 6.5 pKb
O=C(c1ccccc1)N1CCN(Cc2ccc(OC3CCNCC3)cc2)CC1 [Example E32, 1-Phenyl-1-{4-[4-(piperidin-4-yloxy)-benzyl]-piperazin-1-yl}-methanone] | > 6.5 pKb | 
O=C(c1ccc2[nH]ccc2c1)N1CCN(c2ccc(OCCCN3CCCCC3)cc2)CC1 [Example E399, 5-{[4-(4-{[3-(1-Piperidinyl)propyl]oxy}phenyl)-1-piperazinyl]carbonyl}-1H-indole] | > 8.4 pKb | antagonism in the histamine H3 functional antagonist assay (pKb) (listed as Example 399): > 6.5 pKb
O=C(c1cncnc1)N1CCN(c2ccc(OCCCN3CCCCC3)cc2)CC1 [Example E352, 5-{[4-(4-{[3-(1-Piperidinyl)propyl]oxy}phenyl)-1-piperazinyl]carbonyl}pyrimidine] | > 8.4 pKb | antagonism in the histamine H3 functional antagonist assay (pKb) (listed as Example 352): > 6.5 pKb
O=C(c1ccc(Br)cc1)N1CCCN(Cc2ccc(OCCCN3CCCCC3)cc2)CC1 [Example E20, 1-(4-Bromo-phenyl)-1-{4-[4-(3-piperidin-1-yl-propoxy)-benzyl]-[1,4]diazepan-1-yl}-methanone] | > 8.4 pKb | antagonism in the histamine H3 functional antagonist assay (pKb) (listed as Example E20): > 6.5 pKb
Cc1cc(C(=O)N2CCN(c3ccc(OCCCN4CCCCC4)cc3)CC2)ccc1Br [Example E370, 1-[(4-Bromo-3-methylphenyl)carbonyl]-4-(4-{[3-(1-piperidinyl)propyl]oxy}phenyl)piperazine] | > 6.5 pKb | 
O=C(c1cnnc2ccccc12)N1CCN(c2ccc(OCCCN3CCCCC3)cc2)CC1 [Example E394, 4-{[4-(4-{[3-(1-Piperidinyl)propyl]oxy}phenyl)-1-piperazinyl]carbonyl}cinnoline] | > 6.5 pKb | 
O=C(c1c(F)cc(F)cc1F)N1CCN(c2ccc(OCCCN3CCCCC3)cc2)CC1 [Example E424, 1-(4-{[3-(1-Piperidinyl)propyl]oxy}phenyl)-4-[(2,4,6-trifluorophenyl)carbonyl]piperazine] | > 8.4 pKb | antagonism in the histamine H3 functional antagonist assay (pKb) (listed as Example 424): > 6.5 pKb
Cc1cc(C(=O)N2CCCN(Cc3ccc(OCCCN4CCCCC4)cc3)CC2)ccc1Br [Example E16, 1-(4-Bromo-3-methyl-phenyl)-1-{4-[4-(3-piperidin-1-yl-propoxy)-benzyl]-[1,4]diazepan-1-yl}-methanone] | > 8.4 pKb | antagonism in the histamine H3 functional antagonist assay (pKb) (listed as Example E16): > 6.5 pKb
O=C(c1ccc(C(=O)N2CCN(c3ccc(OCCCN4CCCCC4)cc3)CC2)cc1)N1CCSCC1 [Example E437, 4-[(4-{[4-(4-{[3-(1-Piperidinyl)propyl]oxy}phenyl)-1-piperazinyl]carbonyl}phenyl)carbonyl]thiomorpholine] | > 8.4 pKb | antagonism in the histamine H3 functional antagonist assay (pKb) (listed as Example 437): > 6.5 pKb
